Laboratory results reported in publication PMC4336329 (PLoS ONE, 2015).
Hit rate of the full screen: of about 310,000 compounds, about 14,000 (4.5%) showed an effect of 50% or more. Effects have a minus sign here. Some of the results follow.

Molecular target: human ether-à-go-go-related gene (hERG) potassium channel (human, UniProt Q12809)
Assay: primary screen, population patch clamp on CHO cells stably expressing hERG
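Note: peak tail current of the secondary pulse compared with the same well before compound.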

Sequence of human ether-à-go-go-related gene (hERG) potassium channel (Q12809 whole entry, looked up): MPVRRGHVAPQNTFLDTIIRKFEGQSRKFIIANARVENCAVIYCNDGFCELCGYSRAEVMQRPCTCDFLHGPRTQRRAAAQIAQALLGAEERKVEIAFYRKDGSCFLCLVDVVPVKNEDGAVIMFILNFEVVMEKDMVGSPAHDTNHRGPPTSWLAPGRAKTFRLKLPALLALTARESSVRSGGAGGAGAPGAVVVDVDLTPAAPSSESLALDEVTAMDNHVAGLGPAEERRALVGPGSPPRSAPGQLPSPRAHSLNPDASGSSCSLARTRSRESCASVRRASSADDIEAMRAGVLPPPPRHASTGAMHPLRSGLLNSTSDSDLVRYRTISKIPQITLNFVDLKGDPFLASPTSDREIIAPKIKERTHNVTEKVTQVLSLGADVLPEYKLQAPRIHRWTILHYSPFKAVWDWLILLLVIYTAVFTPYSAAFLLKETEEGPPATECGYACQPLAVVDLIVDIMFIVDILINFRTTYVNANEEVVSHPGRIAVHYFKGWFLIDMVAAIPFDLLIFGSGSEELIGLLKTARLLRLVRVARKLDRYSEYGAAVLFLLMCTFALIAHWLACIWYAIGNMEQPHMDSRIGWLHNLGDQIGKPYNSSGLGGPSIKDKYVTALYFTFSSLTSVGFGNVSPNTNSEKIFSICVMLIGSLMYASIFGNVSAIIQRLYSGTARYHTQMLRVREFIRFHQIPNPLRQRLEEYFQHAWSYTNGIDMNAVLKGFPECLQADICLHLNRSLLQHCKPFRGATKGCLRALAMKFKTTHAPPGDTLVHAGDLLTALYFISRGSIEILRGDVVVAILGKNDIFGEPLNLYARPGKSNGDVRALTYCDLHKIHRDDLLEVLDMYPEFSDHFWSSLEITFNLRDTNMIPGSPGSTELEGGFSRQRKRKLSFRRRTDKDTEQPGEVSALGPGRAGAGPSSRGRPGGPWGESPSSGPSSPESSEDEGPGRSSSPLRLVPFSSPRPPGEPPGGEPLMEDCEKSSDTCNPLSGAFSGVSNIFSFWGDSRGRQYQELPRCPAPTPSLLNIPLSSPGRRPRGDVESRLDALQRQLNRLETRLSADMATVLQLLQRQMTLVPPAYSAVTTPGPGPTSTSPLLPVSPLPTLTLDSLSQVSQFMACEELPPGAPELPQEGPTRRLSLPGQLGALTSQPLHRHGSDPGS

| SMILES | hERG current change (%, negative = inhibition) at 10uM |
| --- | --- |
| Cc1sc2ncnc(NCCc3ccc(S(N)(=O)=O)cc3)c2c1C | 12.6% |
| CC(C)OC(=O)CC12CN3CC(CC(=O)OC(C)C)(CN(C1)C(=O)c1ccccc1C3=O)C2=O | 5.46% |
| N=C1SCC(=O)N1c1nc(-c2ccccc2)cs1 | 13% |
| CCCC(=O)N(Cc1cc2cccc(C)c2[nH]c1=O)c1ccccc1OC | -3.78% |
| CSc1ccc(Cl)c(C(=O)N2CCN(c3ncccn3)CC2)c1 | -33% |
| COc1ccc(NC(=O)C(C)Oc2ccc(/C(C)=N\O)cc2)cc1 (stereo not shown) | 5.55% |
| O=c1c2ccccc2ncn1-c1ccccc1C(F)(F)F | -1.92% |
| Cc1ccc(C(=O)C2CCN(CC(=O)NCc3ccc(F)cc3)CC2)cc1 | -53.3% |
| CCn1c(=O)n(CC)c2cc([N+](=O)[O-])c(N3CCNCC3)cc21 | 30.5% |
| CCN(CC)S(=O)(=O)c1ccc(C(=O)NCCCN=C2NS(=O)(=O)c3ccccc32)cc1 | -5.24% |
| COc1cccc(C(=O)NOCc2ccc(C)cc2)c1OC | -7.01% |
| CC(C)(C)c1ccc(NC(=O)c2ccc(=O)[nH]n2)cc1 | -10.8% |
| COc1cccc(C2C(C(=O)c3cc4cccc(OC)c4o3)=C(O)C(=O)N2c2cc(C)on2)c1OC (stereo not shown) | 3.48% |
| Cc1c(NC(=O)Nc2ccc3c(c2)OCO3)c(=O)n(-c2ccccc2)n1C | -6.35% |
| CSc1nc2ccccc2c(=O)n1Cc1ccc(F)cc1 | 15.4% |
| CC1CCCC(C)N1/N=C/c1ccccc1C(=O)O (stereo not shown) | 15.6% |
| COC(=O)c1onc(-c2c(OC)cc(OC)cc2OC)c1C(=O)OC | 4.47% |
| O=C(Nc1ccc(C(=O)O)cc1)Nc1ccc([N+](=O)[O-])cc1 | 24.7% |
| O=C(Nc1nc(-c2cccc(Br)c2)cs1)Oc1ccccc1 | 8.42% |
| Cc1ccc(C)c(NC(=O)c2cnc3n(c2=O)CCS3)c1 | 7.09% |
| Cc1ccc(C(=O)NC(Cc2c[nH]c3ccccc23)C(=O)O)cc1 (stereo not shown) | -3.25% |
| CC(C)c1ccc(NC(=O)CSc2nc(=O)n(CCCN3CCOCC3)c3c2CCCC3)cc1 | -39.7% |

| SMILES | hERG current change (%, negative = inhibition) at 10uM |
| --- | --- |
| Cc1cc(=O)n2nc(N3CCC(C(=O)NCc4ccc(F)cc4)CC3)sc2n1 | -55.5% |
| COc1ccc(Cc2nc3ccc(C(=O)N(C)CCO)cc3o2)cc1 | 6.1% |
| O=C(Nc1nccs1)C1CCCN1S(=O)(=O)c1ccc(Cl)cc1 (stereo not shown) | 0.446% |
| CCCn1c(SC(C)C(=O)NCC2CCCO2)nc2sc3c(c2c1=O)CCC3 (stereo not shown) | -13.4% |
| CCS(=O)(=O)Nc1cc(C(=O)O)ccc1C | -44.8% |
| Cc1c(Cl)cccc1NC(=O)c1cccc(NC(=O)CCC(=O)O)c1 | -0.799% |
| N#Cc1ccc(CC(C(=O)O)N2Cc3ccccc3C2=O)cc1 (stereo not shown) | 25.3% |
| CCN(CC(=O)Nc1c(F)cccc1F)C(=O)c1ccc2ncsc2c1 | 9.79% |
| O=C(NC1CCCCCCC1)c1ccc(Br)o1 | -12.7% |
| CC1CCN(c2ccc([N+](=O)[O-])c(SCCO)c2)CC1 | -11.4% |
| CCCn1cc(S(=O)(=O)CC(=O)N2CCc3ccccc32)c2ccccc21 | -7.94% |
| Fc1ccc(NCc2ccccc2F)cc1Cl | -139% |
| CC(C)=NN1C(c2nonc2N)=NOC1(C)C | 6.47% |
| COc1cccc(CNC(=O)C2CCN(c3ncnc4c3nc3n4CCCCC3)CC2)c1 | 16.7% |
| COC(=O)[C@@](C)(O)C1(C(=O)SC(C)(C)C)CC1 | 1.25% |
| O=C(CCCc1ccccc1)NCc1ccccn1 | 11.6% |
| CCCCOc1ccc(C(=O)OCC(=O)NC2CCCC2)cc1 | 6.06% |
| Cc1cc(NC(=O)c2noc3c2CCc2ccccc2-3)n(-c2ccccc2)n1 | 4.18% |
| CC(C)c1c(C(=O)N/N=C/c2cccnc2)nnn1-c1nonc1N | 15.4% |
| O=C1C(=O)N(CCc2c[nH]c3ccccc23)C(c2cccnc2)/C1=C(/O)c1ccccc1 (stereo not shown) | 2.24% |
| CC1(C)CC2CC(C)(CN2C(=O)c2ccccc2)C1 (stereo not shown) | 8.08% |
| C[C@@]12C(=O)Nc3ccc(Br)cc3C(=O)N1[C@H]1c3cc(Cl)ccc3OC[C@@H]1[C@@H]2c1ccccc1 | 18.5% |

| SMILES | hERG current change (%, negative = inhibition) at 10uM |
| --- | --- |
| COC(=O)c1ccc(C2C(C(C)=O)=C(C)Nc3ncnn32)cc1 (stereo not shown) | 4.75% |
| Cc1ccc(SCc2[nH]nc3c2C(C(C)C)C(C#N)=C(N)O3)cc1 (stereo not shown) | 20.3% |
| C/C(=N\NC(=O)Cc1ccc(Cl)cc1)c1cccnc1 | 2.45% |
| COc1cccc(/C=C2\SC(=S)N(C(C)C(=O)NC3C=CS(=O)(=O)C3)C2=O)c1 (stereo not shown) | 14.6% |
| CCN(CC)CCCNC(=O)N[C@@H](Cc1ccccc1)C(=O)O | 9.59% |
| CC1CCN(C(=O)c2ccc(S(=O)(=O)Cc3ccccc3F)c([N+](=O)[O-])c2)CC1 | 9.69% |
| O=C1OC(Nc2ccc(F)c([N+](=O)[O-])c2)c2ccccc21 (stereo not shown) | -1.46% |
| CC(C)N(Cc1ccccc1)C(=O)CN1C(=O)COc2ccc(S(=O)(=O)N3CCCCCC3)cc21 | 2.42% |
| C1=CC2c3ccccc3NC(c3ccncc3)C2C1 (stereo not shown) | -10.5% |
| Cn1c(=O)c(-c2ccccc2)nn2c3ccccc3nc12 | 5.3% |
| Cc1ccccc1C(C(=O)NCc1ccccc1)N(Cc1ccco1)C(=O)c1ccccn1 (stereo not shown) | -10.3% |
| CN(CC(=O)Nc1ccc(F)cc1)C(=O)C1CCN(C(=O)Nc2ccccc2)CC1 | -11.3% |
| CCC(=O)Nc1ccc(-c2nnc(SCC(=O)NCC3CCCO3)n2C)cc1 (stereo not shown) | 20.6% |
| N#CCCSCc1ccc(C(=O)O)o1 | 4.52% |
| O=C(NCCCN1CCCC1=O)c1ccc(S(=O)(=O)Nc2ccccc2F)cc1 | 7.51% |
| COc1ccc(CCNC(=O)CCCCCN2C(=O)c3ccccc3C2=O)cc1OC | -14.6% |
| COCCNCc1nc2sc(C)c(-c3ccccc3)c2c(=O)[nH]1.O=C(O)C(=O)O | -0.995% |
| CCOC(=O)O[C@]1(C(=O)COC(=O)CC)CC[C@H]2[C@@H]3CCC4=CC(=O)C=C[C@]4(C)[C@H]3[C@@H](O)C[C@@]21C | -7.31% |
| O=C(CCCN1C(=O)/C(=C/c2ccc3c(c2)OCO3)SC1=S)Nc1cccc(C(=O)O)c1 | 11.1% |
| Cc1ccc(OCC(=O)Nc2ccc(N3CCN(C(=O)c4ccco4)CC3)cc2)cc1 | -56.1% |
| Cc1ccc(S(=O)(=O)NCc2ccc(C(=O)NC3CC3)cc2)cc1 | -9.14% |
| CCC(C)NC(=O)CCS(=O)(=O)c1ccc2c(c1)n(C)c(=O)c(=O)n2C (stereo not shown) | -17.4% |

| SMILES | hERG current change (%, negative = inhibition) at 10uM |
| --- | --- |
| CCn1cc(C(=O)O)c(=O)c2cc(F)c(N3CCN(C(=S)NC(=O)c4cccc(F)c4)CC3)cc21 | 5.44% |
| Cc1ccc2[nH]c3c(=O)n(CCC4=CCCCC4)cnc3c2c1 | 4.95% |
| NC(=O)c1cccc2c(=O)oc3ccccc3c12 | 0.534% |
| COc1cccc(NC(=S)NCCN2CCOCC2)c1 | 11.5% |
| Cc1[nH]nc2nc(SCC(=O)NC3CCCCC3)n(-c3ccc(Br)cc3)c(=N)c12 | 9.54% |
| CCOc1cc(NC(=S)NCC2CCCO2)c(OCC)cc1NC(=O)c1ccc(OC)cc1 (stereo not shown) | -0.542% |
| CO/N=C/c1c(-c2ccccc2)nn(C)c1Cl | 10.6% |
| Cn1ccsc1=NC(=O)c1cccc(C#N)c1 | 15.6% |
| CCNC(=S)SCCOc1ccccc1C | 17% |
| NC(=O)C1(N2CCCCC2)CCN(C(=S)Nc2cc(F)cc(F)c2)CC1 | -7.5% |
| Cc1ccc2nc3sc(C(=O)N4CCCc5ccccc54)c(N)c3cc2c1 | 2.69% |
| CN1CC(C(=O)c2ccc(Cl)cc2)C(c2ccccc2)C1 (stereo not shown) | -31.8% |
| C/C(CC(=O)Nc1ccc(N(C)C)cc1)=N\NC(=O)c1ccc([N+](=O)[O-])cc1 | -12.3% |
| CC(C)C(=O)O/N=C(\N)c1ccc(Oc2ccc(Cl)cc2)c([N+](=O)[O-])c1 | 3.35% |
| O=C(CSc1nnc2c(n1)[nH]c1ccccc12)NCc1ccccc1F | -0.0777% |
| O=C(CCn1c(=O)oc2ccccc21)NCc1ccco1 | 15.9% |
| COc1ccc(CCN2C(=NC(=O)CC(C)C)SC3CS(=O)(=O)CC32)cc1OC (stereo not shown) | -12.1% |
| NS(=O)(=O)c1ccc(N=C2C(=O)Nc3ccccc32)cc1 | 11.7% |
| CC1=NN=C(c2ccc(N)cc2)c2cc3c(cc2C1)OCO3.Cl | 5.04% |
| Cc1ccc(C(=O)NCCSC(C)(C)C)cc1 | -5.45% |
| CCOc1ccc(N2C(=O)CNC2=S)cc1 | 15.8% |
| CSc1ncccc1C(=O)Nc1nc2ccc(S(C)(=O)=O)cc2s1 | -3.88% |
